Measured values published in US9062124B2, “GIP-based mixed agonists for treatment of metabolic disorders and obesity” (priority 2008, dated 2015).
For part of these data: Part of at least one peptide drawing is inferred or uncertain, most often the ends. For part of these data: At least one compound was matched to its structure with a doubt left. Where a SMILES comes first, the peptide text is derived from it. [ ]: non-standard residue; d: D form. Aib = CC(C)(N)C(=O)O

What was measured:
glucagon receptor = molecular target: T1, glucagon receptor (Homo sapiens, UniProt P47871); assay: cAMP synthesis functional assay (firefly luciferase reporter in HEK293 cells), glucagon receptor; format: cell-based
T1 construct: expressed in transfected cells; host or cells: HEK293

[1] = Body weight of mice after peptide injection; conditions: Example 36; DIO mice, subcutaneous daily for one week, Day 7
GIP receptor = molecular target: T2, GIP receptor (Homo sapiens, UniProt P48546); assay: cAMP synthesis functional assay (firefly luciferase reporter in HEK293 cells), GIP receptor; format: cell-based; conditions: Table 2
T2 construct: expressed in transfected cells; host or cells: HEK293
T2 sequence (P48546 22-466): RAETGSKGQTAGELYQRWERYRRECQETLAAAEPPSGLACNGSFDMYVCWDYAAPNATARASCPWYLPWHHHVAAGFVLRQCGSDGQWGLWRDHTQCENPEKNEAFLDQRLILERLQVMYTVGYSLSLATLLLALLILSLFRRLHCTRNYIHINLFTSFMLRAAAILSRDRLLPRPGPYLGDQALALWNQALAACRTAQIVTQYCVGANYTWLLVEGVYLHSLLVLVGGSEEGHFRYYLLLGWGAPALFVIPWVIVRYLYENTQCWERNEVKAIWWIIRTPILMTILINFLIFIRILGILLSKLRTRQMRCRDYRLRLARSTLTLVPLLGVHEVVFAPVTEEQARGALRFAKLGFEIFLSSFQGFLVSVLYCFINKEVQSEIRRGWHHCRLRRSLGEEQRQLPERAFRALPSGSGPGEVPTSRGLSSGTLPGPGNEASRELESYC

GLP-1 receptor = molecular target: T3, GLP-1 receptor (Homo sapiens, UniProt P43220); assay: cAMP synthesis functional assay (firefly luciferase reporter in HEK293 cells), GLP-1 receptor; format: cell-based; conditions: Table 2
T3 construct: expressed in transfected cells; host or cells: HEK293

[2] = system: glucagon receptor, GLP-1 receptor or GIP receptor; assay: Agonist profile across receptors assigned from the cAMP reporter assay data; format: cell-based; conditions: assigned from the in vitro EC50 data of Tables 1-4

T1 sequence (P47871 26-477): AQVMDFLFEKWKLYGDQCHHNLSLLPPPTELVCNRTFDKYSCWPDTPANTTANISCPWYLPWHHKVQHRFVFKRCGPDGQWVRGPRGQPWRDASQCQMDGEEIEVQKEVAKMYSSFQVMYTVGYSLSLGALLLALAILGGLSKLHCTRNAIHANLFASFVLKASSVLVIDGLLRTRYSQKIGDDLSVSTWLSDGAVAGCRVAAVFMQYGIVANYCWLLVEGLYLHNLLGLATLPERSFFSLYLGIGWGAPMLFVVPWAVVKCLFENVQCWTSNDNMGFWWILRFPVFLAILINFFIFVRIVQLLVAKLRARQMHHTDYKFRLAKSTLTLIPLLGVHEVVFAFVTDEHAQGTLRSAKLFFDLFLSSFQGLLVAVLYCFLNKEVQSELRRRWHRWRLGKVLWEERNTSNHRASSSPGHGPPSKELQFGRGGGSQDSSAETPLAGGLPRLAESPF
T3 sequence (P43220 24-463, species assumed): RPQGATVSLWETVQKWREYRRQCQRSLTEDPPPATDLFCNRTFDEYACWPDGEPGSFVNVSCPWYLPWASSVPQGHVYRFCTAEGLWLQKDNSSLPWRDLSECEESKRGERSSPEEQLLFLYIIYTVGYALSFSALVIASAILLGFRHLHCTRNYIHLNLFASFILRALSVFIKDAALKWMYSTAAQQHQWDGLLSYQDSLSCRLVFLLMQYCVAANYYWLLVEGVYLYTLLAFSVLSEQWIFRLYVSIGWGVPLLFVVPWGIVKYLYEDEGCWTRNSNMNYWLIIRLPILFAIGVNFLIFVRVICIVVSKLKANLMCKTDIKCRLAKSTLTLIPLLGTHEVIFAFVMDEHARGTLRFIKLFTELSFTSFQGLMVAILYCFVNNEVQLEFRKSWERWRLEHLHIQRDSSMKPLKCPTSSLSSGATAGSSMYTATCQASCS

SMILES | % activity at the glucagon receptor (glucagon receptor; Table 5, relative to the native hormone) [%] | decrease in body weight [1] [%] | Glucagon Receptor relative activity (glucagon receptor; Table 2) [%] | GIP Receptor relative activity (GIP receptor) [%] | GLP-1 Receptor relative activity (GLP-1 receptor) [%] | receptor activity profile (glucagon / GLP-1 / GIP agonism) [2]
CCCCCCCCCCCCCCCC(=O)N[C@@H](CCC(=O)NCCCC[C@H](NC(=O)[C@H](C)NC(=O)[C@H](C)NC(=O)[C@H](CCC(N)=O)NC(=O)CNC(=O)[C@H](CCC(=O)O)NC(=O)[C@H](CC(C)C)NC(=O)[C@H](Cc1ccc(O)cc1)NC(=O)[C@H](CO)NC(=O)[C@H](CO)NC(=O)[C@@H](NC(=O)[C@H](CC(=O)O)NC(=O)[C@H](CO)NC(=O)[C@@H](NC(=O)[C@H](Cc1ccccc1)NC(=O)[C@@H](NC(=O)CNC(=O)[C@H](CCC(=O)O)NC(=O)[C@H](C)NC(=O)[C@@H](N)Cc1cnc[nH]1)[C@@H](C)O)[C@@H](C)O)C(C)C)C(=O)N[C@@H](CCC(=O)O)C(=O)N[C@@H](Cc1ccccc1)C(=O)N[C@H](C(=O)N[C@@H](C)C(=O)N[C@@H](Cc1c[nH]c2ccccc12)C(=O)N[C@@H](CC(C)C)C(=O)N[C@H](C(=O)N[C@@H](CCCNC(=N)N)C(=O)NCC(=O)N[C@@H](CCCNC(=N)N)C(=O)NCC(=O)O)C(C)C)[C@@H](C)CC)C(=O)O [Liraglutide, reference compound] | 0.04 | < 5 |  |  |  | 
CC[C@H](C)[C@H](NC(=O)[C@H](CO)NC(=O)[C@H](Cc1ccc(O)cc1)NC(=O)[C@H](CC(=O)O)NC(=O)[C@H](CO)NC(=O)[C@@H](NC(=O)[C@H](Cc1ccccc1)NC(=O)[C@@H](NC(=O)CNC(=O)[C@H](CCC(N)=O)NC(=O)C(C)(C)NC(=O)[C@@H](N)Cc1ccc(O)cc1)[C@@H](C)O)[C@@H](C)O)C(=O)N[C@@H](Cc1ccc(O)cc1)C(=O)N[C@@H](CC(C)C)C(=O)N[C@@H](CC(=O)O)C(=O)N[C@@H](CO)C(=O)N[C@@H](CCC(N)=O)C(=O)N[C@@H](C)C(=O)N[C@@H](C)C(=O)NC(C)(C)C(=O)N[C@@H](CCC(=O)O)C(=O)N[C@@H](Cc1ccccc1)C(=O)N[C@H](C(=O)N[C@@H](CS)C(=O)N[C@@H](Cc1c[nH]c2ccccc12)C(=O)N[C@@H](CC(C)C)C(=O)N[C@@H](CC(C)C)C(=O)N[C@@H](C)C(=O)NCC(N)=O)C(C)C [mt-259] (H-Y[Aib]QGTFTSDYSIYLDSQAA[Aib]EFVCWLLAG-NH2; N-terminus assumed) |  |  | 23.12 | 12.02 | 62.96 | exhibited activities of glucagon/GLP-1/GIP triagonists
